Measured values from PubChem BioAssay AID1963576 (National Center for Advancing Translational Sciences (NCATS), 2024).
Screen size: about 46,000 compounds; about 60 (0.1%) were called active. Not shown: some 3% with an inconclusive outcome. Calls follow the shape of the dose curve; as a rule, active = well fitted inhibition curve with a large enough effect; inconclusive = small, poorly fitted or top-dose-only effect; inactive = no such curve, though single readings can be large or run the other way. This is one part of the list.

Test: Primary qHTS assay for Inhibitors of ovarian cancer metastasis using an organotypic tumor microenvironment (TME) model. Also: nearly all actives have a fitted effect of over 65% in size.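 As to activity change, negative = inhibition: plate controls were DMSO wells for no effect and tomatine positive control wells for full effect.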
Conditions: SKOV3ip1-GFP adhesion/invasion on 3D omental model, fluorescence; series mostly up to 45.8 µM; activity change, negative = inhibition: at the top concentration
Method in brief: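 Adhesion/invasion was scored as fixed GFP-labeled SKOV3ip1 cell counts (488/509 nm), normalized to DMSO and tomatine controls. Cancer cells in serum-free medium, with four compound doses (0.36-46 umol/L), sat 2 hr at RT then 16 hr at 37 C on a 48 hr fibroblast/mesothelial/ECM culture.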

Activity change, negative = inhibition, inactive:
Cc1cccc(NC(=O)CCc2c(C)nc3nc(CNC(=O)c4cccc(F)c4)nn3c2C)c1 2.87%
Cn1c(=O)c2c(ncn2CC(=O)Nc2cccc(C(F)(F)F)c2)n(C)c1=O -3.06%
CC1CCCCN1C(=O)Cn1c(SCC(=O)N(C)c2ccccc2)nc2ccccc21 (stereo unspecified) 15%
CCn1cc(CNC(=O)c2cc(-c3ccc(C)c(C)c3)nc3ccccc23)c(C)n1 1.88%
O=C(Cn1nc2c(cc1=O)CCCC2)Nc1ccccc1C(F)(F)F -11.6%
Cc1ccc(NC(=O)c2ccc(NC(=O)N3CCSc4nc(C)cc(C)c43)cc2)c(Cl)c1 -3.68%
Cc1cccc(C(c2sc3nc(-c4ccco4)nn3c2O)N2CCN(c3ccccc3)CC2)c1 (stereo unspecified) 1.12%
CCOc1ccccc1CNS(=O)(=O)c1ccc(-c2coc(C)n2)cc1 -10.9%
O=C(C1CCCCC1)N1CC(=O)N2CCc3ccccc3C2C1 (stereo unspecified) 14.8%
Cc1ccc(NC(=O)c2ccc(=O)n(CC(=O)Nc3cccc(C)c3)n2)cc1 -9.02%
Cc1cc(NC(=O)c2cccs2)cc(-c2nc3cc(Cl)ccc3o2)c1O 3.64%
C[C@@H]1CCO[C@H]2Cn3cc(C(=O)NCc4ccc(F)cc4F)c(=O)c(O)c3C(=O)N12 0.451%
CCOC(=O)CNS(=O)(=O)c1cc(-c2nnc(Nc3cccc(O)c3)c3ccccc23)ccc1C 5.55%
CCC(=O)NCc1cc(-c2nn(C)c(=O)c3ccccc23)ccc1OC 0.0778%
CCC(C)(C)C1CCc2c(sc(NC(=O)C3c4ccccc4Oc4ccccc43)c2C(N)=O)C1 (stereo unspecified) 1.25%
Cc1ccccc1NC(=O)CCn1cnc2onc(-c3ccc(F)cc3)c2c1=O 0.545%
O=S(=O)(c1ccccc1)c1nc(-c2cccs2)oc1SCc1ccccc1F 1.9%
CCOc1ccc(NC(=O)CCn2cnc3onc(-c4ccc(F)cc4)c3c2=O)cc1 5.7%
N#Cc1nc(-c2ccc(COc3ccc(Cl)cc3)o2)oc1N1CCN(c2ccccc2)CC1 -25.6%

outcome, inactive:
O=C(Cn1c(=O)n(Cc2ccc3c(c2)OCO3)c(=O)c2oc3ccccc3c21)Nc1ccc(F)cc1
COc1ccc(-c2noc(CSc3nnc(-c4ccncc4)n3-c3ccc(C)cc3)n2)cc1OC
COC(=O)c1ccccc1NC(=O)c1cc2nc(-c3ccc(OC)cc3)cc(C(F)(F)F)n2n1
O=C(CSc1n[nH]c(-c2ccccc2Cl)n1)N1CCN(c2ccccc2)CC1
Cc1ccc(C)c(NC(=O)c2ccc3nc(CCc4ccccc4)oc3c2)c1
CCCCC(CC)CNC(=O)C1CCN(S(=O)(=O)c2cccc3nsnc23)CC1 (stereo unspecified)
Cc1ccc(NS(=O)(=O)c2c(C(=O)N3CCC(C)CC3)c(C)n(C)c2C)cc1Cl
